For four substances, binding results are on record in paper PMC8096781.

Chains of the proteins cited; added tags and fusions are not shown. Residues count along the entry.
UniProt P19838, residues 1-433: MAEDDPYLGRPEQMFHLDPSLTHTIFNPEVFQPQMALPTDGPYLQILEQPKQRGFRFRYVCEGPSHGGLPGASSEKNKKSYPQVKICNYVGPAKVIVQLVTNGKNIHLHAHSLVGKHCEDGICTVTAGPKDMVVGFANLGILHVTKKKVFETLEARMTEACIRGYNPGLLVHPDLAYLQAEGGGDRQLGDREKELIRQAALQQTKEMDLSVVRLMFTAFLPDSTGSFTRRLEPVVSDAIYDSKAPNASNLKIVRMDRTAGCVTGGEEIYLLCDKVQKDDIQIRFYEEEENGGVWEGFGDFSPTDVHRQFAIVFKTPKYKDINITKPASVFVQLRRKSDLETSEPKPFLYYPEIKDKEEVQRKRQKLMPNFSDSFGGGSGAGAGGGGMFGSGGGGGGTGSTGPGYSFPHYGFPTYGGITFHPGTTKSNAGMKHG
UniProt Q04206: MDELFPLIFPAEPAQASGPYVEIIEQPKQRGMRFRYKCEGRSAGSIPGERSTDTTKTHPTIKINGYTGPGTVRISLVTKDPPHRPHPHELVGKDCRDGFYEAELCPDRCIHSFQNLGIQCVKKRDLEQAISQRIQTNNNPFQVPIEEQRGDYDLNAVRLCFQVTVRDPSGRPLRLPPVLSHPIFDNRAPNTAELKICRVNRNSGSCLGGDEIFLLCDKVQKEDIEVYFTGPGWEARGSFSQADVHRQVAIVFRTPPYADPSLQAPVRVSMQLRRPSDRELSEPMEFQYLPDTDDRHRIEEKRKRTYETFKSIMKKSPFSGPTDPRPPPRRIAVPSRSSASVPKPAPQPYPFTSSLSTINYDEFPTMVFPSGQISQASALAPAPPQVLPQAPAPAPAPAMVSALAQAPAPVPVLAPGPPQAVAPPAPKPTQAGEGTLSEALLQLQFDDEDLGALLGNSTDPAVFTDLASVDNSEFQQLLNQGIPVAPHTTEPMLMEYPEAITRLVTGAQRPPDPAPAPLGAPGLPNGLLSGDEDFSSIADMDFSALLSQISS
UniProt P14618: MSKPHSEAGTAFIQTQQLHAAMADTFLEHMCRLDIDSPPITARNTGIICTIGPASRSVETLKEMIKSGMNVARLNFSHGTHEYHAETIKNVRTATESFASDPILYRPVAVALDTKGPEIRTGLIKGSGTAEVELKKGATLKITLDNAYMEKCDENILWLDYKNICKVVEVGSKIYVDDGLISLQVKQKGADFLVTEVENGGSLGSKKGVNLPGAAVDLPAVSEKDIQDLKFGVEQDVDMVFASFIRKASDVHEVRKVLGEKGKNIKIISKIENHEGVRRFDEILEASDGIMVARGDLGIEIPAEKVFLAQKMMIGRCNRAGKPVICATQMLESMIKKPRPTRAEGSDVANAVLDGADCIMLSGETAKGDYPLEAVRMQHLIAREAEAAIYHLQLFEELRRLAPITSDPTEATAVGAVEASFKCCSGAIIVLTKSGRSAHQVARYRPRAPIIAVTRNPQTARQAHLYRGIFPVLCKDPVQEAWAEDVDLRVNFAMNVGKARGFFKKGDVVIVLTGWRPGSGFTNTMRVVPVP

For test [1], the target named is T1, GST-FOXM1D (UniProt Q08050).
T1 sequence: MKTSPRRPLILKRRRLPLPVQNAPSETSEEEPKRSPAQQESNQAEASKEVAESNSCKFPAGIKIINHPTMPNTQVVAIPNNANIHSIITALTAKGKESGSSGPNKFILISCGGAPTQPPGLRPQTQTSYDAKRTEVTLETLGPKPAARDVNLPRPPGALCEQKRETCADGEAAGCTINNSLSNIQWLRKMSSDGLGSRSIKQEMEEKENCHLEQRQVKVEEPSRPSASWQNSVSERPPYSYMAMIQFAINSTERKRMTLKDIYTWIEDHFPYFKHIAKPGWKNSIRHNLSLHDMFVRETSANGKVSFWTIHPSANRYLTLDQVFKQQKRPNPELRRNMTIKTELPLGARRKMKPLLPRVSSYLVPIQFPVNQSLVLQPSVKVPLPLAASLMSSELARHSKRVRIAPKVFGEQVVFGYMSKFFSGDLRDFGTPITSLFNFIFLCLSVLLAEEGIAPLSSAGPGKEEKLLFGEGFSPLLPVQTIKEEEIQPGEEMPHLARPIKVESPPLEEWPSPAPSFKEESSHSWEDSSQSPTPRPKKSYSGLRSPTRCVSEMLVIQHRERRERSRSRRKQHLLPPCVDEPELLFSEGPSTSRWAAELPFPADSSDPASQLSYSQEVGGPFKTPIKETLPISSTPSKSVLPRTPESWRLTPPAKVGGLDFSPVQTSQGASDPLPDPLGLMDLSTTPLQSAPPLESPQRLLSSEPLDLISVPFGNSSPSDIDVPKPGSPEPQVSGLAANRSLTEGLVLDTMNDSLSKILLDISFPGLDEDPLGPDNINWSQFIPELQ
The experiment in a line: pull-down; GST-FOXM1D or control GST bound to MagneGST glutathione particles, incubated with lysates of transfected HEK293T cells for 1 h at 4 °C; western blot with anti-HA and anti-PKM2; only the target purified. (Immunoblotting shows a protein as a band on a membrane.)

The target in test [2] is T2, Flag-FOXM1B (transfected 293T cells) (UniProt Q08050).
T2 sequence: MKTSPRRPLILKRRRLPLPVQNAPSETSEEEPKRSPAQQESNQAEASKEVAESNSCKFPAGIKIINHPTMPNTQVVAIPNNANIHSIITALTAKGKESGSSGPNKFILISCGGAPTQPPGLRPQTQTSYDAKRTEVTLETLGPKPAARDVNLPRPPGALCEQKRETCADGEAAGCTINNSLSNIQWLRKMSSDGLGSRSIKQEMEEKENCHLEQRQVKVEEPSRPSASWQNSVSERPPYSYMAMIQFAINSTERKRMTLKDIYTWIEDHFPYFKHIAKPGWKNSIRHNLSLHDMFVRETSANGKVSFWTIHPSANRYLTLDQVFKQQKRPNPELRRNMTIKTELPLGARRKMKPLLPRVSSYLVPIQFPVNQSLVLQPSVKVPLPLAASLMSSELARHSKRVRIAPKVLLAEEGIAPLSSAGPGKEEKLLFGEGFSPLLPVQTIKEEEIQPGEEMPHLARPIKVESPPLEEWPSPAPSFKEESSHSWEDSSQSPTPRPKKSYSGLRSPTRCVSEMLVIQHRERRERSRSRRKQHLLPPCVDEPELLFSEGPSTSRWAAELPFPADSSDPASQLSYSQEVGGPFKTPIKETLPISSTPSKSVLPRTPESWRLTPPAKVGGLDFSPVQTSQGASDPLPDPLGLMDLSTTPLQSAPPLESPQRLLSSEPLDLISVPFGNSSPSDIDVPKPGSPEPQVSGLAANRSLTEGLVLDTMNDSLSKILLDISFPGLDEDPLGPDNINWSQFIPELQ
As to the kind of experiment: co-IP; HEK293T cells cotransfected with HA-PKM2 (or its truncated mutants) and Flag-FOXM1 isoforms (or FOXM1D truncated mutants); lysed two days after transfection; anti-Flag or anti-HA; washed four times with lysis buffer; western blot.

Test [3] concerns the target T3, Flag-FOXM1C (transfected 293T cells) (UniProt Q08050).
T3 sequence: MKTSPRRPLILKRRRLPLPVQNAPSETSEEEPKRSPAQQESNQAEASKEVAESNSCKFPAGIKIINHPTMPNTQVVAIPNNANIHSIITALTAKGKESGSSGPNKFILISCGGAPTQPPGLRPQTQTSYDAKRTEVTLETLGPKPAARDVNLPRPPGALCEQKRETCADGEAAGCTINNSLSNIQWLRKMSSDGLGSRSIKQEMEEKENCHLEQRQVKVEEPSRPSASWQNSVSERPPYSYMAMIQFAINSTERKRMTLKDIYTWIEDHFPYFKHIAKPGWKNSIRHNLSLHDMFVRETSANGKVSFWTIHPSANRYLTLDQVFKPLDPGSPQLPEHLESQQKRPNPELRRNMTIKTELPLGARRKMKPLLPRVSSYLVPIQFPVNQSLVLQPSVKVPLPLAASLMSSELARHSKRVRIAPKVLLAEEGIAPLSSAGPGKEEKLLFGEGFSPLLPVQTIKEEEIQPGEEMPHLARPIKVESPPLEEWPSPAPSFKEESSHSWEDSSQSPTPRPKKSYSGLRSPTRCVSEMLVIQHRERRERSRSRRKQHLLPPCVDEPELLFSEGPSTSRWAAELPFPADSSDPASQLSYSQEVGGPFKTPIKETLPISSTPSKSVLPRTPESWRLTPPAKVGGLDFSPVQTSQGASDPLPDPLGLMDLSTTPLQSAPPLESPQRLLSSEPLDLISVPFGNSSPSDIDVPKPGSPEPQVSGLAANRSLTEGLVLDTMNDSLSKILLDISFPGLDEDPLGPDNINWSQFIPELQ
The description is as above.

For test [4], the target named is T4, Flag-FOXM1D (transfected 293T cells) (UniProt Q08050).
T4 sequence: T1 sequence
Described as above.

The target in test [5] is T5, Flag-FOXM1A (overexpressed in HeLa cells) (UniProt Q08050).
T5 sequence: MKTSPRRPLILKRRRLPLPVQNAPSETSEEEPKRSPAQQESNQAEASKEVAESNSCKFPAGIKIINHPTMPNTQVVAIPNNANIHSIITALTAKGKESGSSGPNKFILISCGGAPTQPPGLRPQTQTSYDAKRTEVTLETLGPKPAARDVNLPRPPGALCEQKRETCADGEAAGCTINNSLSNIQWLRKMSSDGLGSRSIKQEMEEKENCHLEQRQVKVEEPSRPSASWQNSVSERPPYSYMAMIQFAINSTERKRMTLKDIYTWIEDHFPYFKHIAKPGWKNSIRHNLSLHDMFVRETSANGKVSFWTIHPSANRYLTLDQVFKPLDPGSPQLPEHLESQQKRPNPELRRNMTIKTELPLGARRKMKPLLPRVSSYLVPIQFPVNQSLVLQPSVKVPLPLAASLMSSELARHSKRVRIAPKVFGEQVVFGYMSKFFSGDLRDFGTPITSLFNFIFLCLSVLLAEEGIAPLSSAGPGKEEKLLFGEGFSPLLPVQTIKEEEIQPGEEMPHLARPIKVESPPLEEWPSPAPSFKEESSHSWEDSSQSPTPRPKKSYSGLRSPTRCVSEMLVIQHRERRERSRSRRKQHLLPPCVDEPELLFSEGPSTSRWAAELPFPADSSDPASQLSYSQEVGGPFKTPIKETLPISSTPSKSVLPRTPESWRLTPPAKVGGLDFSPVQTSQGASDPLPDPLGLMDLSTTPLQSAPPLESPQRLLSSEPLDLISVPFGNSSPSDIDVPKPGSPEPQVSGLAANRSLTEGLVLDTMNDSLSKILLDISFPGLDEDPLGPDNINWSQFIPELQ
As to the kind of experiment: co-IP; vector control and Flag-FOXM1A/B/C/D-overexpressing HeLa cells further transfected with HA-p65 or HA-p50 plasmid; anti-Flag or anti-HA antibody; western blot.

Test [6] deals with T6, Flag-FOXM1D (overexpressed in HeLa cells) (UniProt Q08050).
T6 sequence: T1 sequence
Described as above.

In test [7] the target is T7, Flag-FOXM1B (overexpressed in HeLa cells) (UniProt Q08050).
T7 sequence: T2 sequence
Described as above.

For test [8], the target named is HA-p50 (UniProt P19838). Described as above.
In test [9] the target is HA-p65 (UniProt Q04206). The test is described as above.
Test [10] concerns the target T8, Flag-FOXM1C (overexpressed in HeLa cells) (UniProt Q08050).
T8 sequence: T3 sequence
The description is as above.

These are yes or no findings as the source states them, for the method shown. In cells and extracts the contact can be indirect. Some binding calls cover weakened binding; strength is not graded here. For some assays here: Where a sequence is shown, tags or fusion partners need not be part of it.

For “HA-PKM2 (from UniProt P14618 1-531) (enzyme)”, the binding result in test [1], in test [2], in test [3] and in [4] was “binds” throughout.

HA-p50 (from UniProt P19838 1-433): the binding result is “binds weakly” in test [5], “binds” in test [6] and “no binding” in test [7].

Consider HA-p65 (from UniProt Q04206 1-551), for which the binding result in [5] and in test [7] was “binds” each time.

Consider “endogenous PKM2 (HeLa cells) (from UniProt P14618 1-531) (enzyme)”, for which the binding result in [8], in test [6], in test [9], in test [10] and in [7] was “binds” in each case.
